Data taken from PubChem BioAssay AID924 (National Center for Advancing Translational Sciences (NCATS), 2007).
Hit rate of the full screen: of about 130,000 compounds, about 1,200 (0.92%) were called active. The shares of active, inactive and inconclusive entries below differ from those in the screen. Calls come from the whole dose curve; as a rule, active = well fitted cell-killing curve with a large enough effect; inconclusive = small, poorly fitted or top-dose-only effect; inactive = no such curve, though single readings can be large or run the other way. Potencies of inconclusive entries are doubtful fits and often do not repeat.

assay: qHTS Screen for Compounds that Selectively Target Cancer Cells with p53 Mutations: Cytotoxicity of p53ts Cells at the Permissive Temperature; details: H1299-p53A138V at 32C, ATP luminescence viability, 24 h; series mostly up to 46.1 µM; note: nearly all actives have a fitted effect of over 55% in size
How it was run: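 ATP-content luminescence (ATPlite) read-out after 24 h compound exposure at 32C in H1299-p53A138V cells (600/well). Tested up to 46 uM. Normalized to DMSO (0%) and 100 uM tamoxifen (100% killing); Hill-fit AC50.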
Potency is the fitted concentration of half-maximal effect; tags give direction and shape of the fitted curve.

Q: With `O=C1/C(=C/Nc2ccc3c(c2)OCO3)CCc2ccccc21` as the molecule, how does the Potency read?
A: The Potency was active: 3.98 µM.

Q: With `CCOC(=O)c1sc(NC(=O)c2cccnc2)nc1C` as the molecule, how does the Potency read?
A: The Potency was inconclusive: 12.6 µM [cytotoxic, single point].

Q: Which Potency does the source give for `Cc1[nH]nc2nc(SCC(=O)NCC3CCCO3)n(-c3ccc(Br)cc3)c(=N)c12` (stereo not given) here?
A: The Potency was “inactive”.

Q: Which Potency does the source give for `COc1cccc(NC(CNS(=O)(=O)c2ccc(C)cc2)c2ccccc2)c1` (stereo not given) here?
A: Its Potency is “inactive”.

Q: Which Potency does the source give for `COc1cc(SC)ccc1C(=O)Nc1ccon1` here?
A: The Potency was inconclusive: 25.1 µM [cytotoxic, single point].

Q: With `Brc1csc(/C=N/Nc2nc3ccccc3s2)c1` as the molecule, how does the Potency read?
A: Its Potency is inconclusive: 12.6 µM [cytotoxic, partial curve].

Q: For `CC(C)OCCCN1C(=O)c2[nH]nc(-c3ccccc3O)c2C1c1cccc(Cl)c1` (stereo not given), which Potency is on record?
A: Its Potency is inconclusive: 31.6 µM [cytotoxic, single point].

Q: With `O=C(Nc1ccc(CN2CCOCC2)cc1)c1cccs1` as the molecule, how does the Potency read?
A: Its Potency is inconclusive: 15.8 µM [cytotoxic, partial curve].

Q: Which Potency does the source give for `CC(C)c1ccc(C(=O)Nc2cccc3cccnc23)cc1` here?
A: The Potency was inconclusive: 20 µM [cytotoxic, single point].

Q: With `Cc1cnc(Nc2nc3ccccc3o2)nc1C(=O)Nc1cccc(C(F)(F)F)c1` as the molecule, how does the Potency read?
A: The Potency was inconclusive: 15.8 µM [cytotoxic, partial curve].

Q: For `CCOC(=O)C1CCN(C(=O)CSc2c3c(nc4ccc(Cl)cc24)CCCC3)CC1`, which Potency is on record?
A: Its Potency is inconclusive: 31.6 µM [cytotoxic, single point].

Q: With `CCc1ccc(OCc2nc(-c3ccccn3)no2)c(Br)c1` as the molecule, how does the Potency read?
A: Its Potency is active: 15.8 µM.

Q: Which Potency does the source give for `O=C(Nc1noc2ccccc12)c1cccc(F)c1` here?
A: The Potency was inconclusive: 10 µM [cytotoxic, partial curve].

Q: With `O=C(Nc1ccc2oc(-c3ccccc3Cl)nc2c1)c1cncc(Br)c1` as the molecule, how does the Potency read?
A: Its Potency is inconclusive: 25.1 µM [cytotoxic, single point].

Q: With `Cc1nc2ccc3nc(NC(=O)c4ccc5c(c4)OCCO5)sc3c2s1` as the molecule, how does the Potency read?
A: The Potency was “inactive”.

Q: For `CCOC(=O)c1cnc(N2CCN(c3ccc(C)cc3C)CC2)c2ccccc12`, which Potency is on record?
A: The Potency was inconclusive: 6.31 µM [cytotoxic, partial curve].

Q: Which Potency does the source give for `Cc1ccc(C(=O)Nc2ccc(N3CCOCC3)cc2)cc1` here?
A: The Potency was inconclusive: 12.6 µM [cytotoxic, single point].

Q: For `COC(=O)c1ccc(C(NC(=O)OCc2ccccc2)/C(F)=C/[C@@H](C)C(=O)Nc2ccc(OC)cc2)cc1` (stereo not given in full), which Potency is on record?
A: The Potency was inconclusive: 25.1 µM [cytotoxic, single point].

Q: With `CCOC(=O)CS(=O)(=O)c1nc(-c2ccc(F)cc2)cc(C(F)(F)F)n1` as the molecule, how does the Potency read?
A: The Potency was inconclusive: 31.6 µM [cytotoxic, single point].

Q: Which Potency does the source give for `O=C(Nc1ccc(F)cc1F)N1CCN(c2ccc(Cl)c(Cl)c2)CC1` here?
A: The Potency was inconclusive: 35.5 µM [cytotoxic, single point].

Q: With `CCCCCc1nn2cc(-c3ccccc3)nc2s1` as the molecule, how does the Potency read?
A: Its Potency is inconclusive: 3.98 µM [cytotoxic, full curve, poor fit].

Q: For `C=CCc1ccc(OCC(O)COCC)c(OC)c1` (stereo not given), which Potency is on record?
A: The Potency was inconclusive: 10 µM [cytotoxic, partial curve].

Q: For `CC1CN(C(=O)CCC(=O)NCc2ccccc2)c2cc(Cl)ccc2O1` (stereo not given), which Potency is on record?
A: The Potency was inconclusive: 31.6 µM [cytotoxic, single point].

Q: With `COc1ccc(C2=NOC(CN3C(=O)c4ccccc4S3(=O)=O)C2)cc1` (stereo not given) as the molecule, how does the Potency read?
A: The Potency was inconclusive: 12.6 µM [cytotoxic, single point].

Q: With `O=C(Nc1ccc(-c2nc3ccccc3[nH]2)cc1)c1ccco1` as the molecule, how does the Potency read?
A: The Potency was inconclusive: 7.94 µM [cytotoxic, partial curve].

Q: With `O=C(/C=C\Nc1ccccn1)c1ccccc1` as the molecule, how does the Potency read?
A: The Potency was active: 10 µM.

Q: With `CCOc1ccc(NC(=O)C(C)Sc2nc3ncccc3o2)cc1` (stereo not given) as the molecule, how does the Potency read?
A: Its Potency is inconclusive: 20 µM [cytotoxic, single point].

Q: Which Potency does the source give for `COc1ccccc1CNc1nc(-c2cccc(NS(C)(=O)=O)c2)nc2ccccc12` here?
A: Its Potency is inconclusive: 31.6 µM [cytotoxic, single point].

Q: Which Potency does the source give for `COc1ccccc1-c1cc(C(F)(F)F)nc(S(=O)(=O)CCCC(=O)Nc2ccc(F)cc2F)n1` here?
A: The Potency was inconclusive: 31.6 µM [cytotoxic, single point].

Q: Which Potency does the source give for `COc1cc2c(cc1C(F)(F)F)N(C(=O)Nc1cc(F)cc(-c3cccnc3)c1)CC2` here?
A: Its Potency is inconclusive: 25.1 µM [cytotoxic, partial curve].

Q: For `c1ccc(Cc2nnc3sc(-c4ccncc4)nn23)cc1`, which Potency is on record?
A: The Potency was “inactive”.

Q: For `COc1ccc2c(c1)CC(C(=O)Nc1ccc(Br)c(C)c1)CO2` (stereo not given), which Potency is on record?
A: The Potency was “inactive”.

Q: Which Potency does the source give for `Cc1nn(-c2ccccc2)c(-n2cccc2)c1C(=O)NCCCN1CCN(c2ccccc2F)CC1` here?
A: Its Potency is “inactive”.

Q: Which Potency does the source give for `CSc1n[nH]c(NCc2ccc(C)cc2)n1` here?
A: Its Potency is active: 11.2 µM.

Q: For `CC(C)(C)c1cc(C(c2cccnc2)N2CCN(CCO)CC2)cc(C(C)(C)C)c1O` (stereo not given), which Potency is on record?
A: The Potency was inconclusive: 25.1 µM [cytotoxic, single point].

Q: Which Potency does the source give for `O=C(N=c1nc2ccccn2s1)c1ccccc1` here?
A: Its Potency is active: 2 µM.

Q: For `Cc1ccco1`, which Potency is on record?
A: Its Potency is inconclusive: 0.0032 µM [cytotoxic, full curve, poor fit].

Q: For `CCOC(=O)CCc1c(C)c2cc3c(c(C)c2oc1=O)OCN(CCc1ccccc1OC)C3`, which Potency is on record?
A: Its Potency is “inactive”.

Q: For `CCN(c1ccccc1)c1ncnc2c1cnn2-c1ccc(OC)cc1`, which Potency is on record?
A: The Potency was inconclusive: 10 µM [cytotoxic, partial curve].

Q: Which Potency does the source give for `COc1ccc(CCNC(=O)c2ccc3nc(-c4ccco4)c(-c4ccco4)nc3c2)cc1OC` here?
A: Its Potency is inconclusive: 12.6 µM [cytotoxic, partial curve].

Q: With `COc1ccc(OC)c(Nc2nc(-c3ccc(O)c(O)c3)cs2)c1` as the molecule, how does the Potency read?
A: The Potency was inconclusive: 31.6 µM [cytotoxic, single point].

Q: For `COc1ccc(Nc2cc(C(=O)NCCCN3CCN(C)CC3)c3ccccc3n2)c(OC)c1`, which Potency is on record?
A: Its Potency is inconclusive: 10 µM [cytotoxic, partial curve].

Q: With `O=C(c1cccs1)c1ccc(-c2cccs2)s1` as the molecule, how does the Potency read?
A: The Potency was active: 7.94 µM.

Q: With `O=C(O)CNC1=NCCC1` as the molecule, how does the Potency read?
A: The Potency was inconclusive: 31.6 µM [cytotoxic, single point].

Q: For `Cc1ccc(CNC(=O)CCCCCn2c(=O)c3sccc3n(CC(=O)C(C)(C)C)c2=O)cc1`, which Potency is on record?
A: The Potency was “inactive”.
